In patent publication US7652041B2, “Cinnamide and hydrocinnamide derivatives with kinase inhibitory activity” (Millennium Pharmaceuticals, Inc., priority 2005, dated 2010) one finds IC50 data, which are given here for 30 compounds.

The experiment concerns A375 cells. The experiment can be described thus: Phospho-ERK ELISA assay. In kind it is cell-based. As to conditions: Homo sapiens, A-375, 3 hours with inhibitor, anti-p44/42MAPK antibody ELISA, normalized for protein content. The protocol:
Inhibition of Raf kinase activity in whole cell systems can be assessed by determining the decrease in phosphorylation of Raf kinase substrates. Any known Raf kinase substrate can be used to measure inhibition of Raf kinase activity in a whole cell system.
In a specific example, A375 cells were seeded in a 96-well cell culture plate (12×10^3 cells/100 μL/well) and incubated overnight at 37° C. Medium was removed, and cells were incubated with Raf kinase inhibitors for 3 hours at 37° C. Medium was removed, and cells were fixed with 4% paraformaldehyde for 15 minutes at room temperature.
Methanol was added for 15 min. Cells were removed and blocked with 10% sheep serum and 1% BSA in PBS overnight at 4° C. Cells were incubated with anti-p44/42MAPK antibody (1:100, Cell Signaling Technologies, #9101L) (20 μL/well) for one hour at room temperature. After washing with PBS three times, cells were stained with anti-rabbit horseradish peroxidase-linked antibody from donkey (1:100, Amersham Bioscience #NA934V) for 1 hour at room temperature. Cells were washed three times with 0.5% Tween-20 in PBS and twice with PBS. 3,3′,5,5′-Tetramethylbenzidine (TMB) liquid substrate system (Sigma, #T8665) (50 μL/well) was added, and cells were incubated for 30-45 minutes at room temperature. Optical density was read at 650 nm. Cells were then washed 3-5 times with PBS to remove color solution. Results were normalized for the protein content in each well using a BCA protein assay kit (Pierce).
As usually defined, the IC50 is the midpoint of a concentration-inhibition curve. Read a low IC50 as greater potency. Compound `CNC(=O)c1cc(Oc2ccc(CCC(=O)Nc3ccc(Cl)cc3)cc2)ccn1` [Compound A-11, 4-(4-{3-[(4-chlorophenyl)amino]-3-oxopropyl}phenoxy)-N-methylpyridine-2-carboxamide] had an IC50 of 10 to 25 µM.

In turn, `CNC(=O)c1cc(Oc2ccc(CCC(=O)Nc3ccccc3)cc2)ccn1` [Compound A-12, 4-[4-(3-anilino-3-oxopropyl)phenoxy]-N-methylpyridine-2-carboxamide] showed an IC50 of 1 to 10 µM. To `CN(C)CCNC(=O)c1cc(Oc2ccc(CCC(=O)Nc3ccc(Cl)c(C(F)(F)F)c3)cc2)ccn1` [Compound A-24, 4-[4-(3-{[4-chloro-3-(trifluoromethyl)phenyl]amino}-3-oxopropyl)phenoxy]-N-[2-(dimethylamino)ethyl]pyridine-2-carboxamide] belongs 10 to 25 µM; to `O=C(CCc1ccc(Oc2ccnc(C(=O)NCCN3CCCC3)c2)cc1)Nc1ccc(Cl)c(C(F)(F)F)c1` [Compound A-26], 10 to 25 µM; to `O=C(CCc1ccc(Oc2ccnc(C3=NCCN3)c2)cc1)Nc1ccc(Cl)c(C(F)(F)F)c1` [Compound A-27], 1 to 10 µM. Compound `O=C(CCc1ccc(Oc2ccnc(C3=NCCCN3)c2)cc1)Nc1ccc(Cl)c(C(F)(F)F)c1` [Compound A-35, N-[4-chloro-3-(trifluoromethyl)pheny]-3-(4-{[2-(1,4,5,6-tetrahydropyrimidin-2-yl)pyridin-4-yl]oxy}phenyl)propanamide] displayed an IC50 of 1 to 10 µM.

Compound `CNC(=O)c1cc(Oc2cccc(CCC(=O)Nc3ccc(CN)c(C(F)(F)F)c3)c2)ccn1` [Compound A-50, 4-[3-(3-{[4-(aminomethyl)-3-(trifluoromethyl)phenyl]amino}-3-oxopropyl)phenoxy]-N-methylpyridine-2-carboxamide] registered an IC50 of 10 to 25 µM. `O=C(CCc1cccc(Oc2ccnc(C3=NCCN3)c2)c1)Nc1cc(C2=NCCN2)cc(C(F)(F)F)c1` [Compound A-51, 3-(3-{[2-(4,5-dihydro-1H-imidazol-2-yl)pyridin-4-yl]oxy}phenyl)-N-[3-(4,5-dihydro-1H-imidazol-2-yl)-5-(trifluoromethyl)phenyl]propanamide]: the IC50 was in the range of 1 to 10 µM.

`CC(=N)NCc1cc(Oc2cccc(CCC(=O)Nc3ccc(Cl)c(C(F)(F)F)c3)c2)ccn1` [Compound A-52, N-[4-chloro-3-(trifluoromethyl)phenyl]-3-[3-({2-[(ethanimidoylamino)methyl]pyridin-4-yl}oxy)phenyl]propanamide] came in with an IC50 of 10 to 25 µM. As for `O=C(CCc1cccc(Oc2ccnc(C3=NCCN3)c2)c1)Nc1ccc(Cl)c(C(F)(F)F)c1` [Compound A-55, N-[4-chloro-3-(trifluoromethyl)phenyl]-3-(3-{[2-(4,5-dihydro-1H-imidazol-2-yl)pyridin-4-yl]oxy}phenyl)propanamide], the figure is 1 to 10 µM. Compound `CN(C)CCNCc1cnc(-c2cc(Oc3cccc(CCC(=O)Nc4ccc(Cl)c(C(F)(F)F)c4)c3)ccn2)[nH]1` [Compound A-58, N-[4-chloro-3-(trifluoromethyl)phenyl]-3-[3-({2-[5-({[2-(dimethylamino)ethyl]amino}methyl)-1H-imidazol-2-yl]pyridin-4-yl}oxy)phenyl]propanamide] came in with an IC50 of 1 to 10 µM.

As for `CC(C)(C)c1cccc(NC(=O)CCc2cccc(Oc3ccnc(C4=NCCN4)c3)c2)c1` [Compound A-59, N-(3-tert-butylphenyl)-3-(3-{[2-(4,5-dihydro-1H-imidazol-2-yl)pyridin-4-yl]oxy}phenyl)propanamide], the IC50 was not above 1 µM. `CC(C)(C)c1cc(NC(=O)CCc2cccc(Oc3ccnc(C4=NCCN4)c3)c2)ccc1Cl` [Compound A-61, N-(3-tert-butyl-4-chlorophenyl)-3-(3-{[2-(4,5-dihydro-1H-imidazol-2-yl)pyridin-4-yl]oxy}phenyl)propanamide] yielded an IC50 of 1 to 10 µM. In the case of `Cc1cc(CCC(=O)Nc2ccc(Cl)c(C(F)(F)F)c2)ccc1Oc1ccnc(C2=NCCN2)c1` [Compound A-62, N-[4-chloro-3-(trifluoromethyl)phenyl]-3-(4-{[2-(4,5-dihydro-1H-imidazol-2-yl)pyridin-4-yl]oxy}-3-methylphenyl)propanamide], the IC50 was 1 to 10 µM.

`O=C(CCc1cccc(Oc2ccnc(C3=NCCN3)c2)c1)Nc1ccc(C#CCO)c(C(F)(F)F)c1` [Compound A-63, 3-(3-{[2-(4,5-dihydro-1H-imidazol-2-yl)pyridin-4-yl]oxy}phenyl)-N-[4-(3-hydroxyprop-1-yn-1-yl)-3-(trifluoromethyl)phenyl]propanamide] registered an IC50 of 1 to 10 µM. As for `CN(C)CC#Cc1ccc(NC(=O)CCc2cccc(Oc3ccnc(C4=NCCN4)c3)c2)cc1C(F)(F)F` [Compound A-66, 3-(3-{[2-(4,5-dihydro-1H-imidazol-2-yl)pyridin-4-yl]oxy}phenyl)-N-[4-[3-(dimethylamino)prop-1-yn-1-yl]-3-(trifluoromethyl)phenyl]propanamide], the IC50 lay within 10 to 25 µM. To `O=C(CCc1cccc(Oc2ccnc(C3=NCCN3)c2)c1)Nc1ccc(CO)c(C(F)(F)F)c1` [Compound A-67, 3-(3-{[2-(4,5-dihydro-1H-imidazol-2-yl)pyridin-4-yl]oxy}phenyl)-N-[4-(hydroxymethyl)-3-(trifluoromethyl)phenyl]propanamide] belongs 10 to 25 µM; to `Cc1cc(NC(=O)CCc2cccc(Oc3ccnc(C4=NCCN4)c3)c2)ccc1Cl` [Compound A-72, N-(4-chloro-3-methylphenyl)-3-(3-{[2-(4,5-dihydro-1H-imidazol-2-yl)pyridin-4-yl]oxy}phenyl)propanamide], 1 to 10 µM; to `CN(C)Cc1cnc(-c2cc(Oc3cccc(CCC(=O)Nc4ccc(Cl)c(C(F)(F)F)c4)c3)ccn2)[nH]1` [Compound A-73, N-[4-chloro-3-(trifluoromethyl)phenyl]-3-{3-[(2-{5-[(dimethylamino)methyl]-1H-imidazol-2-yl}pyridin-4-yl)oxy]phenyl}propanamide], 1 to 10 µM. Regarding `O=C(CCc1cccc(Oc2ccnc(C3=NCCCN3)c2)c1)Nc1ccc(Cl)c(C(F)(F)F)c1` [Compound A-74, N-[4-chloro-3-(trifluoromethyl)phenyl]-3-(3-{[2-(1,4,5,6-tetrahydropyrimidin-2-yl)pyridin-4-yl]oxy}phenyl)propanamide], the IC50 fell in the range of 1 to 10 µM. `O=C(CCc1cccc(Oc2ccnc(C3=NCCN3)c2)c1)Nc1cccc(C2CC2)c1` [Compound A-76, N-(3-cyclopropylphenyl)-3-(3-{[2-(4,5-dihydro-1H-imidazol-2-yl)pyridin-4-yl]oxy}phenyl)propanamide]: the IC50 is 1 to 10 µM. Compound `CN(C)CCNC(=O)c1cc(Oc2cccc(CCC(=O)Nc3ccc(Cl)c(C(F)(F)F)c3)c2)ccn1` [Compound A-78, 4-[3-(3-{[4-chloro-3-(trifluoromethyl)phenyl]amino}-3-oxopropyl)phenoxy]-N-[2-(dimethylamino)ethyl]pyridine-2-carboxamide] yielded an IC50 of 10 to 25 µM. As for `O=C(CCc1ccc(Oc2ccnc(C3=NCCCN3)c2)cc1)Nc1cccc(C(F)(F)F)c1` [Compound A-86, 3-(4-{[2-(1,4,5,6-tetrahydropyrimidin-2-yl)pyridin-4-yl]oxy}phenyl)-N-[3-(trifluoromethyl)phenyl]propanamide], the figure is 10 to 25 µM. The compound `O=C(CCc1cccc(Oc2ccnc(C3=NCCN3)c2)c1)Nc1cc(C(F)(F)F)ccc1Cl` [Compound A-89, N-[2-chloro-5-(trifluoromethyl)phenyl]-3-(3-{[2-(4,5-dihydro-1H-imidazol-2-yl)pyridin-4-yl]oxy}phenyl)propanamide] returned an IC50 of 1 to 10 µM.

As for `CC(C)(C)c1ccc(O)c(NC(=O)CCc2cccc(Oc3ccnc(C(N)=O)c3)c2)c1` [Compound A-90, 4-(3-{3-[(5-tert-butyl-2-hydroxyphenyl)amino]-3-oxopropyl}phenoxy)pyridine-2-carboxamide], the IC50 was 1 to 10 µM. `N#Cc1ccc(NC(=O)CCc2cccc(Oc3ccnc(C4=NCCN4)c3)c2)cc1C(F)(F)F` [Compound A-91, N-[4-cyano-3-(trifluoromethyl)phenyl]-3-(3-{[2-(4,5-dihydro-1H-imidazol-2-yl)pyridin-4-yl]oxy}phenyl)propanamide] gave an IC50 of 1 to 10 µM. To `CC(=O)Nc1cc(Oc2cccc(CCC(=O)Nc3cccc(C(C)(C)C)c3)c2)ccn1` [Compound A-96, 3-(3-{[2-(acetylamino)pyridin-4-yl]oxy}phenyl)-N-(3-tert-butylphenyl)propanamide] belongs not above 1 µM. Regarding `O=C(CCc1cccc(Oc2ccnc(NC(=O)C3CC3)c2)c1)Nc1ccc(Cl)c(C(F)(F)F)c1` [Compound A-98, N-{4-[3-(3-{[4-chloro-3-(trifluoromethyl)phenyl]amino}-3-oxopropyl)phenoxy]pyridin-2-yl}cyclopropanecarboxamide], the IC50 lay within 1 to 10 µM. As for `CC1CNC(c2cc(Oc3ccc(CCC(=O)Nc4ccc(Cl)c(C(F)(F)F)c4)cc3)ccn2)=N1` (stereo not drawn) [Compound A-99, N-[4-chloro-3-(trifluoromethyl)phenyl]-3-(4-{[2-(4-methyl-4,5-dihydro-1H-imidazol-2-yl)pyridin-4-yl]oxy}phenyl)propanamide], the figure is 1 to 10 µM; as for `NCc1ccc(NC(=O)CCc2cccc(Oc3ccnc(C4=NCCN4)c3)c2)cc1C(F)(F)F` [Compound A-101, N-[4-(aminomethyl)-3-(trifluoromethyl)phenyl]-3-(3-{[2-(4,5-dihydro-1H-imidazol-2-yl)pyridin-4-yl]oxy}phenyl)propanamide], 1 to 10 µM.
